Among the data in PMC7006413 are binding values, retold here.

Sequences of proteins named here, by UniProt entry; tags and fusion partners are left off.
UniProt P67809: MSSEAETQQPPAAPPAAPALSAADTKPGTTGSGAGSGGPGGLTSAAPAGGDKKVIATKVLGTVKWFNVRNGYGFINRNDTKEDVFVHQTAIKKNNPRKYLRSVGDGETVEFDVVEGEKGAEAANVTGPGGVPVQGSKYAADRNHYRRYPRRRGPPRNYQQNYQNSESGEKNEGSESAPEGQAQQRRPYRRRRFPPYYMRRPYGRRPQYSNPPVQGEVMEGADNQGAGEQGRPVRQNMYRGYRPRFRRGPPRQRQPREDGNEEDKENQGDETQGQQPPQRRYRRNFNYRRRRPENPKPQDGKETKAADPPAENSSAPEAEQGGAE

In the test the target is flag-YB1 (wild-type) (UniProt P67809). Kind of test: co-IP; anti-flag IP from HEK293T cells co-transfected for 48 h with HA-BRD7 (wild type or deletion mutants) and flag-YB1 (wild type or deletion mutants); blot for HA and flag; the text calls the BRD7-mutant panel 'pulldown assays'.

No constants are given. Whether binding was seen depends on the method and setting. In cells and extracts the contact can be indirect. Some results given as binding are weak or reduced against the parent protein; the word gives no strength. Sequences can lack the tags named with a protein.

B1: HA-BRD7 C-terminal domain mutant (232–651 aa) (domain or fragment, UniProt Q9NPI1 232-651)
chain: LSQERIQSLKQSIDFMADLQKTRKQKDGTDTSQSGEDGGCWQREREDSGDAEAHAFKSPSKENKKKDKDMLEDKFKSNNLEREQEQLDRIVKESGGKLTRRLVNSQCEFERRKPDGTTTLGLLHPVDPIVGEPGYCPVRLGMTTGRLQSGVNTLQGFKEDKRNKVTPVLYLNYGPYSSYAPHYDSTFANISKDDSDLIYSTYGEDSDLPSDFSIHEFLATCQDYPYVMADSLLDVLTKGGHSRTLQEMEMSLPEDEGHTRTLDTAKEMEITEVEPPGRLDSSTQDRLIALKAVTNFGVPVEVFDSEEAEIFQKKLDETTRLLRELQEAQNERLSTRPPPNMICLLGPSYREMHLAEQVTNNLKELAQQVTPGDIVSTYGVRKAMGISIPSPVMENNFVDLTEDTEEPKKTDVAECGPGGS
As for B1, the binding result is reported as “no binding”.

B2: HA-BRD7 ∆N-terminal domain mutant (∆1–134 aa) (domain or fragment, UniProt Q9NPI1 135-651)
chain: PLQEALNQLMRQLQRKDPSAFFSFPVTDFIAPGYSMIIKHPMDFSTMKEKIKNNDYQSIEELKDNFKLMCTNAMIYNKPETIYYKAAKKLLHSGMKILSQERIQSLKQSIDFMADLQKTRKQKDGTDTSQSGEDGGCWQREREDSGDAEAHAFKSPSKENKKKDKDMLEDKFKSNNLEREQEQLDRIVKESGGKLTRRLVNSQCEFERRKPDGTTTLGLLHPVDPIVGEPGYCPVRLGMTTGRLQSGVNTLQGFKEDKRNKVTPVLYLNYGPYSSYAPHYDSTFANISKDDSDLIYSTYGEDSDLPSDFSIHEFLATCQDYPYVMADSLLDVLTKGGHSRTLQEMEMSLPEDEGHTRTLDTAKEMEITEVEPPGRLDSSTQDRLIALKAVTNFGVPVEVFDSEEAEIFQKKLDETTRLLRELQEAQNERLSTRPPPNMICLLGPSYREMHLAEQVTNNLKELAQQVTPGDIVSTYGVRKAMGISIPSPVMENNFVDLTEDTEEPKKTDVAECGPGGS
On to B2, for which the binding result was “no binding”.

B3: HA-BRD7 ∆BRD domain mutant (∆135–231 aa) (protein, UniProt Q9NPI1)
chain: MGKKHKKHKSDKHLYEEYVEKPLKLVLKVGGNEVTELSTGSSGHDSSLFEDKNDHDKHKDRKRKKRKKGEKQIPGEEKGRKRRRVKEDKKKRDRDRVENEAEKDLQCHAPVRLDLPPEKPLTSSLAKQEEVEQTLSQERIQSLKQSIDFMADLQKTRKQKDGTDTSQSGEDGGCWQREREDSGDAEAHAFKSPSKENKKKDKDMLEDKFKSNNLEREQEQLDRIVKESGGKLTRRLVNSQCEFERRKPDGTTTLGLLHPVDPIVGEPGYCPVRLGMTTGRLQSGVNTLQGFKEDKRNKVTPVLYLNYGPYSSYAPHYDSTFANISKDDSDLIYSTYGEDSDLPSDFSIHEFLATCQDYPYVMADSLLDVLTKGGHSRTLQEMEMSLPEDEGHTRTLDTAKEMEITEVEPPGRLDSSTQDRLIALKAVTNFGVPVEVFDSEEAEIFQKKLDETTRLLRELQEAQNERLSTRPPPNMICLLGPSYREMHLAEQVTNNLKELAQQVTPGDIVSTYGVRKAMGISIPSPVMENNFVDLTEDTEEPKKTDVAECGPGGS
In the case of B3, the binding result was “binds”.

B4: HA-BRD7 N-terminal domain mutant (1–134 aa) (domain or fragment, UniProt Q9NPI1 1-134)
chain: MGKKHKKHKSDKHLYEEYVEKPLKLVLKVGGNEVTELSTGSSGHDSSLFEDKNDHDKHKDRKRKKRKKGEKQIPGEEKGRKRRRVKEDKKKRDRDRVENEAEKDLQCHAPVRLDLPPEKPLTSSLAKQEEVEQT
As to B4, the binding result is “binds”.

B5: HA-BRD7 ∆C-terminal domain mutant (∆232–651 aa) (domain or fragment, UniProt Q9NPI1 1-231)
chain: MGKKHKKHKSDKHLYEEYVEKPLKLVLKVGGNEVTELSTGSSGHDSSLFEDKNDHDKHKDRKRKKRKKGEKQIPGEEKGRKRRRVKEDKKKRDRDRVENEAEKDLQCHAPVRLDLPPEKPLTSSLAKQEEVEQTPLQEALNQLMRQLQRKDPSAFFSFPVTDFIAPGYSMIIKHPMDFSTMKEKIKNNDYQSIEELKDNFKLMCTNAMIYNKPETIYYKAAKKLLHSGMKI
Take B5: the binding entry was “binds”.
